The text below walks through data of PubChem BioAssay AID588579 (National Center for Advancing Translational Sciences (NCATS), 2011).

Several values for one entry are separate records, joined by “and”; a condition that tells them apart may be missing. Equal entries are not always repeated. Out of some 400,000 compounds screened, about 2,200 (0.55%) were called active. Not shown: some 1% with an inconclusive outcome. Calls come from the whole dose curve; as a rule, active = well fitted inhibition curve with a large enough effect; inconclusive = small, poorly fitted or top-dose-only effect, or another doubt; inactive = no such curve, though single readings can be large or run the other way. The list shows a part of the results, in another mix than the full data. Some structures have more than one record in an assay (separate samples or runs), and their calls can disagree.
% is set by controls: 0 for no effect and ±100 for the full control effect; potency is the fitted concentration of half-maximal effect.

Chain of UniProt Q9UBT6 (Q9UBT6 whole entry, looked up): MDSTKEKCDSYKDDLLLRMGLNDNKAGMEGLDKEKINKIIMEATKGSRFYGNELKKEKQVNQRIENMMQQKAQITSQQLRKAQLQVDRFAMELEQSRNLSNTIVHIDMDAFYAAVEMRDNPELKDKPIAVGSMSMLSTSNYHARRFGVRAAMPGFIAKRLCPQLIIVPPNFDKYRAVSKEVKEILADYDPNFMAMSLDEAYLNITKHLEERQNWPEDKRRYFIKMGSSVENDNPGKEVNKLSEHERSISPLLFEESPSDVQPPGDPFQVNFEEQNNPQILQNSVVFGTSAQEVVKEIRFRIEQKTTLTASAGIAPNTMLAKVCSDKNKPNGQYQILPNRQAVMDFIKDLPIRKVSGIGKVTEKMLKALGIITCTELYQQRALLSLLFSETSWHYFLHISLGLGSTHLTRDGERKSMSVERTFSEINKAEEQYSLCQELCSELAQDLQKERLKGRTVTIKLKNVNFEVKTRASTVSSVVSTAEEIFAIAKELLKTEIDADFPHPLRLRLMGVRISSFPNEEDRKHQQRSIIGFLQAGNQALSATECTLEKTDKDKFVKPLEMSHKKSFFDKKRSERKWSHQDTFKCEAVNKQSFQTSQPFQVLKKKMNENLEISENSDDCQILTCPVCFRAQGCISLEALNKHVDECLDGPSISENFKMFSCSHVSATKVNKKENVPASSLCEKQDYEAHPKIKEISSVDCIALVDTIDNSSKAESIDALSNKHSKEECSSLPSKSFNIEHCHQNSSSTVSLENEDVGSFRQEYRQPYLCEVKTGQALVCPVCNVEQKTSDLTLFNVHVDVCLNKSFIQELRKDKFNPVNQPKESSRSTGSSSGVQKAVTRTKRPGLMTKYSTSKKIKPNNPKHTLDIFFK

This assay addresses DNA polymerase kappa (Homo sapiens) (UniProt Q9UBT6). Description: qHTS for Inhibitors of Polymerase Kappa. The note with it: purified Pol kappa, fluorescent DNA synthesis assay, 10 min; series mostly up to 107 µM; activity, negative = inhibition: at the top concentration. Summed up:
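Activity was followed as the change in fluorescence between reads at 0 and 10 min after starting the reaction with 50 nM substrate. Beforehand, 10 nM polymerase had been preincubated with compound for 15 min at room temperature.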
In general terms: qHTS replaces the single test concentration by a dilution series.
On to `Nc1nc2ncc(CNc3ccc(C(=O)NC(CCC(=O)O)C(=O)O)cc3)nc2c(=O)[nH]1` (stereo not drawn), for which the Potency result was “inactive”. For the compound `Cc1ccc(N(CC(=O)NCc2ccc(F)cc2)S(=O)(=O)c2c(C)nn(C)c2C)cc1`, the “activity, negative = inhibition” value is inactive: 11.5%. `N#CC(C#N)=C(N)/C(C#N)=C/c1cc(O)c(O)c(O)c1`: the Potency is active: 0.794 µM. Turning to `C=CCc1cccc(C=NNC(=O)CN2CCN(Cc3ccccc3)CC2)c1O`, the “activity, negative = inhibition” value was inactive: -2.1% [at 60.1 µM].

`Nc1ccc2nc(-c3cccc(-c4nc5ccc(N)cc5[nH]4)n3)[nH]c2c1`: the Potency was active: 56.2 µM. On the same count and under the same terms, with `N#C/C(=C\c1ccc(O)c(O)c1)C(=O)NCc1ccccc1` the entry was “inactive”. Take `CN(C)CCCn1c2c3ccccc3ccc2c2oc(=O)c3ccccc3c21`: the “activity, negative = inhibition” value was inactive: -22%.

Turning to `O=c1cc(-c2cc(O)c(O)c([C@@H]3O[C@H](CO)[C@@H](O)[C@H](O)[C@H]3O)c2)oc2cc(O[C@@H]3O[C@H](CO)[C@@H](O)[C@H](O)[C@H]3O)cc(O)c12`, the “activity, negative = inhibition” value was inactive: 11.2% [at 60.1 µM]. Regarding `C[C@@]12CCC3c4ccc(O)cc4CCC3C1CCC2O` (stereo partly drawn), the “activity, negative = inhibition” value was inactive: -4.52% [at 60.1 µM]. On the same count and under the same terms, the value for `COc1ccc(-c2cc(C)no2)cc1S(=O)(=O)N1CCc2ccccc21` was inactive: 24%. Turning to `CCN(CC)CCCCNc1ncc2cc(-c3cc(OC)cc(OC)c3)c(NC(=O)NC(C)(C)C)nc2n1`, the Potency result was “inactive”. In the case of `CCCOc1ccc(C(=O)OCCN(CC)CC)cc1N`, the activity, negative = inhibition was inactive: -8.48% [at 12 µM]. On to `COC(=O)Nc1ccc2[nH]cc(CCNC(C)=O)c2c1`, for which the Potency result is “inactive”. For the compound `Cc1cc(C)c(S(=O)(=O)Nc2cccc(C(F)(F)F)c2)c(C)c1`, the “activity, negative = inhibition” value is inactive: -14.9%. As to `O=C(N/N=C/C=C\c1ccco1)c1cccnc1`, the Potency is active: 79.4 µM.

As for `COC1C(OC(=O)/C=C/C=C/C=C/C=C/C(=O)O)CCC2(CO2)C1C1(C)OC1CC=C(C)C` (stereo not drawn) (tested in a mixture with another compound), the “activity, negative = inhibition” value is inactive: -6.33%. For the compound `O=C(Nc1ccccc1F)c1coc(=O)c(Br)c1`, the Potency is active: 31.6 µM. On the same count and under the same terms, the value for `O=C(COC(=O)c1ccccc1)Nc1ncc([N+](=O)[O-])s1` was active: 22.4 µM; that for `NS(=O)(=O)c1ccc(NC(=O)/C=C/c2ccco2)cc1` was active: 50.1 µM. On the same count and under the same terms, the value for `CSc1ccc(/C=C2\C(=N)N3N=C(CC(=O)N4CCCCC4)SC3=NC2=O)cc1` was active: 89.1 µM. For `COC(=O)C1=COC(C)C2CN3CCc4c([nH]c5ccccc45)C3CC12` (stereo not drawn), the “activity, negative = inhibition” value is inactive: -13.4%. The same measure, in the same setting: the value for `O[C@@H]1[C@@H](O)C=C2CCN3Cc4cc5c(cc4[C@H]1C23)OCO5` (stereo partly drawn) was inactive: -12.4%. As for `N#Cc1c(N)sc(=S)c2c1CCCCC2`, the Potency was active: 28.2 µM. As to `CN(Cc1cnc2nc(N)nc(N)c2n1)c1ccc(C(=O)N[C@@H](CCC(=O)O)C(=O)O)cc1`, the Potency result was “inactive”.

For the compound `COc1cc(C2CC(=O)Oc3cc4c(cc32)OCO4)cc(OC)c1OC` (stereo not drawn), the “activity, negative = inhibition” value is inactive: -5.88%. `c1csc(Cc2nn3c(-c4ccncc4)nnc3s2)c1`: the Potency is active: 39.8 µM. Still for that read-out and setting: the value for `O=C(O)c1ccc(-c2ccc(/C=C3\NC(=O)N(Cc4ccc(Cl)cc4)C3=O)o2)cc1Cl` was active: 4.47 µM. `CC(C)(C)CC(C)(C)c1ccc(O)c(Cc2ccc(Cl)cc2Cl)c1`: the “activity, negative = inhibition” value was inactive: -7.12%. The same measure, in the same setting: with `c1cncc(CNc2ncnc3ccc(-c4ccoc4)cc23)c1` the figure was inactive: 9.47%; with `CC[C@H](C)[C@H](NC(=O)[C@H](Cc1ccc(O)cc1)NC(=O)[C@@H]1CCCN1C(=O)[C@H](CCCN=C(N)N)NC(=O)[C@H](CCCN=C(N)N)NC(=O)[C@@H]1CCCN1C(=O)[C@H](CCCCN)NC(=O)[C@H](CC(N)=O)NC(=O)[C@H](CCC(N)=O)NC(=O)[C@H](Cc1ccc(O)cc1)NC(=O)[C@H](CC(C)C)NC(=O)[C@@H]1CCC(=O)N1)C(=O)N[C@@H](CC(C)C)C(=O)O`, inactive: 16.1% [at 60.1 µM]. Take `C/C=C/COC(=O)c1[nH]c2c(c1C)C(=O)CC(c1ccco1)C2` (stereo not drawn): the Potency was active: 79.4 µM. With `CC(O)[C@@H]1NC(=O)[C@H](CCCN)NC(=O)[C@@H](Cc2c[nH]c3ccccc23)NC(=O)[C@H](Cc2ccc(O)cc2)NC(=O)[C@@H](NC(=O)[C@H](N)Cc2ccccc2)CSSC(C)(C)C(C(=O)N[C@H](C(N)=O)[C@@H](C)O)NC1=O` (stereo partly drawn), the “activity, negative = inhibition” value is inactive: 11.7% [at 60.1 µM]. Turning to `COc1ccc([C@@H]2CC(=O)c3c(O)cc(O[C@@H]4OC(CO[C@@H]5OC(C)[C@H](O)[C@H](O)C5O)[C@@H](O)[C@@H](O)C4O)cc3O2)cc1O` (stereo partly drawn), the “activity, negative = inhibition” value is inactive: 1.98%. In the case of `CC(=O)Oc1ccc2c(c1)Oc1cc(OC(C)=O)ccc1C21OC(=O)c2ccccc21`, the “activity, negative = inhibition” value was inactive: 117%. On the same count and under the same terms, the value for `CN(Cc1ccco1)S(=O)(=O)c1nnc(NC(=O)c2ccccc2Cl)s1` was inactive: 6.19%.

Take `NCCNS(=O)(=O)c1cccc2cnccc12`: the Potency entry is “inactive”. The same measure, in the same setting: the value for `CC1CCCN(C(=S)SCC(=O)c2cc(Br)cc(Br)c2O)C1` (stereo not drawn) was active: 25.1 µM; that for `CC1=C(/C=C/C(C)=C/C=C/C(C)=C\C(=O)O)C(C)(C)CCC1` was “inactive”; that for `C/C(=C\c1ccc(C(=O)O)cc1)c1ccc2c(c1)C(C)(C)CCC2(C)C` was “inactive”. Consider `O=CC(O)C(O)C(O)C(O)CO` (stereo not drawn), for which the “activity, negative = inhibition” value was inactive: -11.3% [at 60.1 µM]. Same read-out and setting: with `N[C@H](C(=O)N[C@@H]1C(=O)N2C(C(=O)O)=C(Cl)CS[C@@H]12)c1ccccc1` the figure was inactive: -4.89% [at 12 µM] and inactive: -8.4% [at 12 µM]. In the case of `CC1=NOC(=O)/C1=C\c1ccc(-c2ccc(Cl)c(C(=O)O)c2)o1`, the Potency was active: 35.5 µM. The same measure, in the same setting: with `c1coc(-c2nnc3sc(Cc4cccs4)nn23)c1` the figure was active: 20 µM.
